Measurements reported in US20230340142A1 (SUZHOU NEOLOGICS BIOSCIENCE, published 2023).

B1: B fusion protein (SEQ ID NOs:155 and 162) (other)
heavy: QGQLVQSGAEVKKPGSSVKVSCKTSGFTFSSSYISWVRQAPGQGLEWMGWIYAGTGGTSYNQKFTGRVTITVDTSTSTAYMELSSLRSEDTAVYYCARHEGKYWYFDVWGQGTTVTVSSASTKGPSVFPLAPSSKSTSGGTAALGCLVKDYFPEPVTVSWNSGALTSGVHTFPAVLQSSGLYSLSSVVTVPSSSLGTQTYICNVNHKPSNTKVDKRV[human IgG1 Fc omitted]PEAPTDPEAPTDPEAPTDIPPHVQKSVNNDMIVTDNNGAVKFPQLCKFCDVRFSTCDNQKSCMSNCSITSICEKPQEVCVAVWRKNDENITLETVCHDPKLPYHDFILEDAASPKCIMKEKKKPGETFFMCSCSSDECNDNIIFS
light: EIVMTQSPATLSVSPGERATLSCSASSSVSYVHWYQQKPGQAPRPWIYDTSNLASGFPARFSGSGSGTEYTLTISSLQSEDAAVYYCHQRSSYPWTFGGGTKVEIKRTVAAPSVFIFPPSDEQLKSGTASVVCLLNNFYPREAKVQWKVDNALQSGNSQESVTEQDSKDSTYSLSSTLTLSKADYEKHKVYACEVTHQGLSSPVTKSFNRGEC
notes: Anti-PD-L1 antibody (humanized Clone B) whose heavy chain is linked through a transferrin linker to a TGFbRII ECD trap; also called B fusion protein-1; B fusion protein - 1; copies: 2 + 2
B2: B fusion protein-23 (SEQ ID NOs:234 and 162) (other)
heavy: QGQLVQSGAEVKKPGSSVKVSCKTSGFTFSSSYISWVRQAPGQGLEWMGWIYAGTGGTSYNQKFTGRVTITVDTSTSTAYMELSSLRSEDTAVYYCARHEGKYWYFDVWGQGTTVTVSSASTKGPSVFPLAPSSKSTSGGTAALGCLVKDYFPEPVTVSWNSGALTSGVHTFPAVLQSSGLYSLSSVVTVPSSSLGTQTYICNVNHKPSNTKVDKRV[human IgG1 Fc omitted]PEAPTDPEAPTDPEAPTDPEAIPPHVQGSVNNDMIVTDNAGAVKFPQLCKFCDVRFSTCDNQKSCMSNCSITSICEKPQEVCVAVWRKNDENITLETVCHDPKLPYHDFILEDAASPKCIMKEKKKPGETFFMCSCSSDECNDNIIFS
light: B1 light
B3: B fusion protein-24 (SEQ ID NOs:235 and 162) (other)
heavy: QGQLVQSGAEVKKPGSSVKVSCKTSGFTFSSSYISWVRQAPGQGLEWMGWIYAGTGGTSYNQKFTGRVTITVDTSTSTAYMELSSLRSEDTAVYYCARHEGKYWYFDVWGQGTTVTVSSASTKGPSVFPLAPSSKSTSGGTAALGCLVKDYFPEPVTVSWNSGALTSGVHTFPAVLQSSGLYSLSSVVTVPSSSLGTQTYICNVNHKPSNTKVDKRV[human IgG1 Fc omitted]IPPHVGGSVNNDMIVTDNAGAVKFPQLCKFCDVRFSTCDNQKSCMSNCSITSICEKPQEVCVAVWRKNDENITLETVCHDPKLPYHDFILEDAASPKCIMKEKKKPGETFFMCSCSSDECNDNIIFS
light: B1 light
notes: no linker; copies: 2 + 2
B4: B fusion protein-25 (SEQ ID NOs:236 and 162) (other)
heavy: QGQLVQSGAEVKKPGSSVKVSCKTSGFTFSSSYISWVRQAPGQGLEWMGWIYAGTGGTSYNQKFTGRVTITVDTSTSTAYMELSSLRSEDTAVYYCARHEGKYWYFDVWGQGTTVTVSSASTKGPSVFPLAPSSKSTSGGTAALGCLVKDYFPEPVTVSWNSGALTSGVHTFPAVLQSSGLYSLSSVVTVPSSSLGTQTYICNVNHKPSNTKVDKRV[human IgG1 Fc omitted]PEAPTDEPEAPTDEPEAIPPHVGGSVNNDMIVTDNAGAVKFPQLCKFCDVRFSTCDNQKSCMSNCSITSICEKPQEVCVAVWRKNDENITLETVCHDPKLPYHDFILEDAASPKCIMKEKKKPGETFFMCSCSSDECNDNIIFS
light: B1 light
notes: linker (PEAPTDE)2PEA; copies: 2 + 2
B5: B fusion protein-26 (SEQ ID NOs:237 and 162) (other)
heavy: QGQLVQSGAEVKKPGSSVKVSCKTSGFTFSSSYISWVRQAPGQGLEWMGWIYAGTGGTSYNQKFTGRVTITVDTSTSTAYMELSSLRSEDTAVYYCARHEGKYWYFDVWGQGTTVTVSSASTKGPSVFPLAPSSKSTSGGTAALGCLVKDYFPEPVTVSWNSGALTSGVHTFPAVLQSSGLYSLSSVVTVPSSSLGTQTYICNVNHKPSNTKVDKRV[human IgG1 Fc omitted]PEAPTDEPEAPTDEPEAPTDEIPPHVQKSVNNDMIVTDNNGAVKFPQLCKFCDVRFSTCDNQKSCMSNCSITSICEKPQEVCVAVWRKNDENITLETVCHDPKLPYHDFILEDAASPKCIMKEKKKPGETFFMCSCSSDECNDNIIFS
light: B1 light
notes: linker (PEAPTDE)3

Legend:
human PD-L1 = target: T1, human PD-L1 (human, UniProt Q9NZQ7 in part, limits assumed); assay: sandwich ELISA: coated hPD-L1, titrated fusion protein, then rhTGF-β, biotinylated anti-TGF-β antibody and streptavidin-HRP, OD450
T1 construct: also called hPD-L1

[1] = target: T2, TGF-beta 1 recombinant protein (Example 11) (UniProt P01137 in part, limits assumed); assay: Gator BLI; fusion protein on HFC sensor, antigen in solution; 1:1 fit
T2 construct: also called TGF- 1; TGF-1

[2] = target: T3, human PD-L1 recombinant protein, PD-L1-his (human, UniProt Q9NZQ7 in part); assay: as above
T3 construct: also called PD-L1 with a his-tag; not shown: his-tag

T2 sequence (P01137 279-390 limits assumed): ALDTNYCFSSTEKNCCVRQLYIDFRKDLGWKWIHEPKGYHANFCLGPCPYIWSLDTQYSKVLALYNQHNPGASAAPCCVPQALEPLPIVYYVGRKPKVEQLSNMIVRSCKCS
human PD-L1, sequence (Q9NZQ7 19-238 limits assumed): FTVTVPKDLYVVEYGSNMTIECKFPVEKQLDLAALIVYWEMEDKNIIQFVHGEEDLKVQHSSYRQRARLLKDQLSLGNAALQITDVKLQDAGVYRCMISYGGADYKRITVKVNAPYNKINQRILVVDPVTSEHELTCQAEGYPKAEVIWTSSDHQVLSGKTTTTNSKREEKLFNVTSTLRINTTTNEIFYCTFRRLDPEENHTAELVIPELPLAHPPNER

Binder | EC50 (read off the curve) (human PD-L1) [µg/mL] | Kd [1] [nM] | koff [1] [s⁻¹] | kon [1] [M⁻¹ s⁻¹] | Kd [2] [nM] | koff [2] [s⁻¹] | kon [2] [M⁻¹ s⁻¹]
B1 | ~0.01 | 0.679 | 0.00147 | 2.17e+06 | 8.43 | 0.00163 | 193000
B2 |  | 0.331 | 0.000124 | 375000 | 1.05 | 0.00059 | 560000
B3 |  | 0.758 | 0.000294 | 387000 | 1.31 | 0.000662 | 507000
B4 |  | 0.436 | 0.000235 | 538000 | 0.91 | 0.000496 | 545000
B5 |  | 0.727 | 0.00036 | 495000 | 1.28 | 0.00071 | 552000
